Assay results as given in PubChem BioAssay AID686979 (National Center for Advancing Translational Sciences (NCATS), 2013).
Several values for one entry are separate records, joined by “and”; a condition that tells them apart may be missing. Identical values can stand only once. Among all 420,000 compounds or so, about 50,000 (12%) were called active. Inconclusive results, whose numbers are uncertain, are shown with a selection of clear calls. Calls come from the whole dose curve; as a rule, active = well fitted inhibition curve with a large enough effect; inconclusive = small, poorly fitted or top-dose-only effect; inactive = flat fitted curve, though single readings scatter. A potency beside an inconclusive call is a rough fit, not a confirmed value.

Assay: qHTS for Inhibitors of human tyrosyl-DNA phosphodiesterase 1 (TDP1): qHTS in cells in presence of CPT; note: nearly all actives have a fitted effect of over 55% in size
Conditions: chicken DT40 Tdp1-/-;hTDP1 cells + 20 nM CPT, ATP luminescence, 48 h; activity change, negative = growth inhibition: at 46.2 µM (top of the series) unless noted
In short: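 Chicken DT40 Tdp1-/- cells complemented with human TDP1, 400 cells/well, exposed to compounds plus 20 nM camptothecin for at least 48 h at 37 C; viability read as ATP content by CellTiter-Glo luminescence.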
% is set by controls: 0 for no effect and ±100 for the full control effect; potency is the fitted concentration of half-maximal effect; tags give direction and shape of the fitted curve.

Row | Compound | Potency | activity change, negative = growth inhibition
1 | O=C(Nc1ccc2ncccc2c1)c1ccccc1 | inconclusive: 29.1 µM [inhibitor, single point] | –
2 | CCOC(=O)[C@]12CCCC=C1N(Cc1ccco1)C(=O)[C@H](CC(=O)N1CCCCC1)C2 | inconclusive: 29.1 µM [inhibitor, single point] | –
3 | COc1ccc(OCC(=O)Nc2cccc(NC(=O)COc3ccc(OC)cc3)n2)cc1 | – | inconclusive: -29.9% [inhibitor]
4 | O=C(OCc1ccccc1)Oc1cncc(C(=O)O)c1 | inconclusive: 29.1 µM [inhibitor, single point] | –
5 | Cc1cccc(C)c1OCC(=O)N(Cc1ccc(Cl)cc1)CC1CCCO1 (stereo not given) | inconclusive: 18.4 µM [inhibitor, single point] | –
6 | O=c1c2ccccc2ncn1-c1ccc(Cl)cc1Cl | inconclusive: 29.1 µM [inhibitor, single point] | –
7 | O=C(Nc1cc(-c2ccccc2)nn1-c1ccccc1)c1ccccc1F | inconclusive: 23.1 µM [inhibitor, single point] | –
8 | O=C(COC(=O)c1ccccc1Oc1ccccc1)NCc1ccco1 | – | inconclusive: -31.7% [inhibitor]
9 | CCCNC(=O)c1cc2c(c(-c3cccc(-c4ccc(C#N)cc4)c3)n1)[C@@H](CCO)N(C(=O)CC)C2 | inconclusive: 20.6 µM [inhibitor, single point] | –
10 | Cc1ccc(S(=O)(=O)CCc2nc3ccccc3s2)cc1 | inactive | –
11 | O=C(C(=O)N1CCN(c2cccc(Cl)c2)CC1)c1c[nH]c2ccccc12 | inconclusive: 29.1 µM [inhibitor, single point] | –
12 | COc1cccc(-n2c(SCC(=O)N3CCc4ccccc43)nnc2-c2c[nH]c3ccccc23)c1 | active: 16.4 µM | –
13 | CCCOc1ncnc2c1sc1nc3c(cc12)COC(C)(C)C3 | inconclusive: 20.6 µM [inhibitor, single point] | –
14 | CCCOc1ccc(/C=C/C(=O)OCC(=O)N(C)c2c(N)n(Cc3ccccc3)c(=O)[nH]c2=O)cc1OCC | inconclusive: 20.6 µM [inhibitor, single point] | –
15 | Cc1cc([N+](=O)[O-])nn1CC(=O)N/N=C/c1ccccc1Br | inactive | –
16 | CSc1nc2cc3c(cc2n1C(=O)c1ccc(C)cc1)OCCO3 | inconclusive: 29.1 µM [inhibitor, single point] | –
17 | CCCN(Cc1cccs1)C(=O)Nc1ccccc1C | inactive | –
18 | CC1CC(C)CN(C(=O)CNC(=O)c2sc3ccccc3c2Cl)C1 (stereo not given) | inconclusive: 29.1 µM [inhibitor, single point] | –
19 | CCNC(=S)N(Cc1ccco1)Cc1cc2cc3c(cc2[nH]c1=O)OCCO3 | inconclusive: 18.4 µM [inhibitor, single point] | –
20 | C=C1CCN([C@@H](Cc2ccccc2)C(=O)NCc2ccc(Cl)c(Cl)c2)S(=O)(=O)c2ccccc21 | inconclusive: 29.1 µM [inhibitor, single point] | –
21 | CCCOc1ccc(N2C(=O)CC(N3CCN(CCN=CC4C(=O)CC(C)(C)CC4=O)CC3)C2=O)cc1 (stereo not given) | inactive | –
22 | Cc1cc(C)nc(SCc2csc(-c3ccccc3)n2)n1 | inconclusive: 29.1 µM [inhibitor, single point] | –
23 | CC(C)n1nc(C(=O)Oc2cccc(Cl)c2Cl)c2ccccc2c1=O | inconclusive: 23.1 µM [inhibitor, single point] | –
24 | Cc1ccc(-n2c(SCC(=O)NC3CCS(=O)(=O)C3)nc3ccccc3c2=O)c(C)c1 (stereo not given) | inconclusive: 29.1 µM [inhibitor, single point] | –

Row | Compound | Potency | activity change, negative = growth inhibition
25 | Cn1c(=O)c2c(nc(NCCc3ccccc3)n2Cc2ccc(Cl)c(Cl)c2)n(C)c1=O | inconclusive: 9.2 µM [inhibitor, partial curve] | –
26 | CCCCN(CC)CCCNC(=O)c1csc2c1CCCCC2 | inconclusive: 14.6 µM [inhibitor, single point] | –
27 | O=C(Nc1ccccc1)C12CC3CC(C1)CC(n1cnc([N+](=O)[O-])n1)(C3)C2 | inactive | –
28 | O=C(NC1CCCCC1)N1CCCC(c2nc(-c3ccc(S(=O)(=O)N4CCCC4)cc3)no2)C1 (stereo not given) | inconclusive: 6.51 µM [inhibitor, partial curve] | –
29 | CC(C)(C)c1ccc(OCC(O)CSc2ncn[nH]2)cc1 (stereo not given) | inactive | –
30 | CCc1ccc(NC(=O)C(CC)c2ccccc2)cc1 (stereo not given) | inconclusive: 11.6 µM [inhibitor, partial curve] | –
31 | NNC(=O)/C(=C\c1cccs1)NC(=O)c1ccccc1 | inactive | –
32 | Cc1ccccc1OCC(=O)Nc1ccccc1CO | inconclusive: 29.1 µM [inhibitor, single point] | –
33 | O=C(COC(=O)c1cc[n+]([O-])cc1)NCc1ccccc1Cl | inactive | –
34 | COC(=O)c1ccccc1NS(=O)(=O)c1ccc(F)cc1 | – | inconclusive: -33.1% [inhibitor]
35 | CC1(NC(=O)Cc2csc(-c3ccc(Cl)cc3)n2)CCS(=O)(=O)C1 (stereo not given) | inconclusive: 29.1 µM [inhibitor, single point] | –
36 | COc1ccc(/C=N/NC(=O)C2C(=O)NCC2c2ccccc2)c(OC)c1 (stereo not given) | inactive | –
37 | Cn1cccc1C(=O)N1CCC2(CCN(C(=O)Nc3cccc(F)c3)CC2)CC1 | active: 23.1 µM | –
38 | CCCCc1ccc(NC(=O)N[C@H](C(=O)O)C(C)CC)cc1 (stereo not given in full) | inconclusive: 20.6 µM [inhibitor, single point] | –
39 | O=C(NCCCN1CCOCC1)c1ccc2c(c1)N(Cc1ccccc1)C(=O)c1ccccc1S2 | inactive and inconclusive: 29.1 µM [inhibitor, single point] | –
40 | Cc1ccc(N(CC(=O)N/N=C/c2cccs2)S(C)(=O)=O)cc1Cl | inactive | –
41 | O=C1C=CC(=O)N1c1ccc2ccccc2c1 | active: 4.11 µM | –
42 | CCN(CC)c1ccc(NC(=O)Nc2cccc(C(C)=O)c2)cc1 | inconclusive: 29.1 µM [inhibitor, single point] | –
43 | CCC12CC1(C(=O)OC)C(=O)N1CCc3c([nH]c4ccccc34)C12 (stereo not given) | inactive | –
44 | O=C(c1ccc(=O)oc1)N1CCCc2ccccc21 | inconclusive: 29.1 µM [inhibitor, single point] | –
45 | COc1ccc(-c2cc3nc(-c4ccccc4)cc(N4CCCC(O)C4)n3n2)cc1 (stereo not given) | active: 16.4 µM | –
46 | CCC(=O)N1CCc2cc(S(=O)(=O)CCC(=O)N3CCN(c4ccc(F)cc4)CC3)ccc21 | active: 20.6 µM | –
47 | CN(Cc1ccco1)c1cc(-c2cccc(NS(C)(=O)=O)c2)ncn1 | inactive | –
48 | Cc1cccc(N2CCN(C(=O)Cc3cn(C)c4ccccc34)CC2)c1C | inconclusive: 25.9 µM [inhibitor, single point] | –

Row | Compound | Potency | activity change, negative = growth inhibition
49 | CCS(=O)(=O)c1ccc(C(=O)Nc2cccc(Cl)c2)c(Cl)c1Cl | inconclusive: 18.4 µM [inhibitor, single point] | –
50 | COc1ccc2[nH]c3nc(SCC(=O)NC4CC4)nnc3c2c1 | inactive | –
51 | Cc1ccc(C)c(CN2CCC(CNC(=O)Cn3ncc4c([nH]c5ccccc54)c3=O)CC2)c1 | inconclusive: 29.1 µM [inhibitor, single point] | –
52 | COc1cc(CNc2ccc3[nH]c(=O)[nH]c3c2)cc(Br)c1OCC(=O)NC(C)(C)C | inconclusive: 20.6 µM [inhibitor, single point] | –
53 | CCN(CC)CCNC(=O)c1ccc(CS(=O)(=O)c2ccccc2C)o1 | inactive | –
54 | COc1ccccc1NC(=O)Nc1nc(CC(=O)Nc2ccc(N(C)C)cc2)cs1 | inconclusive: 29.1 µM [inhibitor, single point] | –
55 | O=C(NC(c1ccc(-c2ccccc2)cc1)c1cnccn1)C1CCN(Cc2cccs2)CC1 (stereo not given) | inconclusive: 29.1 µM [inhibitor, single point] | –
56 | Cc1ccc(-c2nnc(SCC(=O)N/N=C/c3ccccc3C(=O)O)n2-c2ccc(C)cc2)cc1 | inactive | –
57 | CCC(C)(C)NC(=O)C(c1ccc(C)cc1)N(Cc1cccs1)C(=O)c1ccc2c(c1)OCCO2 (stereo not given) | inconclusive: 20.6 µM [inhibitor, single point] | –
58 | CCOC(=O)/C=C/C(=O)Nc1ccc(S(=O)(=O)N(C)c2ccccc2)cc1 | active: 1.84 µM | –
59 | COc1ccc(CNC(=O)COC(=O)CN2C(=O)C(C)Oc3ccc(C)cc32)cc1 (stereo not given) | inactive | –
60 | CCOc1ccc(NC(=O)NC(C)c2c(-n3cccc3)sc(C)c2C)cc1 (stereo not given) | inconclusive: 20.6 µM [inhibitor, single point] | –
61 | Cc1ccc(-n2nc(C(=O)O)c(C)c(C#N)c2=O)cc1Cl | inactive | –
62 | Cc1cccc(N(CC(=O)NCCC2=CCCCC2)S(C)(=O)=O)c1C | active: 16.4 µM | –
63 | O=C(Nc1cccnc1)c1ccc(COc2ccccc2Br)cc1 | inconclusive: 29.1 µM [inhibitor, single point] | –
64 | O=C(C1CCCN1S(=O)(=O)c1ccc(Cl)cc1)N1CCCCC1 (stereo not given) | inactive | –
65 | CC(NC(=O)NC1CCCCC1)C(c1cccs1)N1CCN(c2ccccc2)CC1 (stereo not given) | inconclusive: 16.4 µM [inhibitor, single point] | –
66 | COc1ccc(-c2nc(-c3ccc(NC(=O)c4ccc(Br)o4)cc3)no2)cc1OC | active: 18.4 µM | –
67 | CN(C(=O)CSc1nc2ccccc2c(=O)n1-c1ccccc1F)C1CCS(=O)(=O)C1 (stereo not given) | inactive | –
68 | CC(C)(O)CN(C(=O)C(c1ccccc1)c1ccccc1)C1CCCCC1 | inconclusive: 29.1 µM [inhibitor, single point] | –
69 | COc1ccc(S(=O)(=O)N2CCC(C(=O)N3CCCCCC3)CC2)cc1 | inconclusive: 20.6 µM [inhibitor, single point] | –
70 | CN1OC[C@@H]2CN(C(=S)NCCc3ccccc3)[C@H](c3ccc(-n4ccnc4)cc3)C[C@@H]21 | inactive | –
